In experiment [1] the target is T1, human TGFβ2 (human, UniProt P61812 303-414).
T1 sequence (looked up): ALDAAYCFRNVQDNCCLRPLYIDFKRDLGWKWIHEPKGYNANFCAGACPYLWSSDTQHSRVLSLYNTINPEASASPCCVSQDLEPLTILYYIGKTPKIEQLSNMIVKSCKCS
The experiment can be described thus: ELISA, plate coated with 0.5 ug/ml human TGFβ2, 1 h incubation, OD450. On the procedure: A 96-well EIA microplate was coated with 0.5 ug/ml human TGFβ (TGFβ1, TGFβ2, or TGFβ3) overnight at 4° C. […] The unbound proteins were removed by washing the wells with 1×PBST (1×PBS containing 0.05% Tween 20) three times. A HRP-conjugated secondary antibody (1:5000) was added to the wells at room temperature (RT) for 1 hour. After the incubation, excess secondary antibodies were removed by washing the wells with 1×PBST three times. Finally, 3,3′,5,5′-Tetramethylbenzidine (TMB) was added for color development. The reaction was stopped and HRP activity was measured using a spectrophotometer at 450 nm.
On the technique in general: An ELISA detects its analyte on a solid surface through an enzyme-linked reagent.

The target of experiment [2] is T2, human TGFβ1 (human, UniProt P01137 partial chain). The experiment can be described thus: ELISA (off rate), plate coated with 0.5 ug/ml human TGFβ1, 1 h incubation, then 2 h wash on a shaker, OD450. On the procedure: A HRP-conjugated secondary antibody (1:5000) was added to the wells at RT for 1 hour. After the incubation, excess secondary antibodies were removed by washing the wells with 1×PBST three times. Finally, 3,3′,5,5′-Tetramethylbenzidine (TMB) was added for color development. The reaction was stopped and HRP activity was measured using a spectrophotometer at 450 nm.

Experiment [3] concerns the target T2, human TGFβ1. The experiment can be described thus: ELISA (on rate), plate coated with 0.5 ug/ml human TGFβ1, 5 min incubation, OD450. As for the experimental part:
For on-rate binding ability, a 96-well EIA microplate was coated with 0.5 μg/ml human TGFβ (TGFβ1) overnight at 4° C. […] The unbound proteins were removed by washing the wells with 1×PBST (1×PBS containing 0.1% Tween 20) three times. A HRP-conjugated secondary antibody (1:5000) was added to the wells at RT for 1 hour. After the incubation, excess secondary antibodies were removed by washing the wells with 1×PBST three times. Finally, 3,3′,5,5′-Tetramethylbenzidine (TMB) was added for color development. The reaction was stopped and HRP activity was measured using a spectrophotometer at 450 nm.

Data on 4 molecules can be found in patent US20240228584A1 (FBD BIOLOGICS, published 2024).

T2 sequence (P01137 279-390 limits assumed): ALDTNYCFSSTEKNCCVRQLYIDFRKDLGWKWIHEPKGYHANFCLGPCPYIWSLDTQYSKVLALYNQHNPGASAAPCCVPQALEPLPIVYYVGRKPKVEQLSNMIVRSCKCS

B1: G4_TGFβRII_mt1 (Fc fusion)
chain: [letters of human IgG4 Fc with S228P (EU numbers) omitted]AGGGGSGGGGSGGGGSGGGGSGIPPHVQKSVNNDMIVTDNNGAVKFPQLCKFCDVRFSTCDNQKSCMSNCEITSICEKPQEVCVAVWRKNDENITLETVCHDPKLPYHDFILEDAASPKCIMKEKKKPGETFFMCSCSSDECNDNIIFSEEYNTSNPD
What is called EC50 (read off the curve) is the concentration at which the effect is half-maximal. By EC50 is commonly meant the concentration needed to bring the measured effect to its halfway point. High values mean lower potency in that assay, low ones higher potency in that assay. In the case of B1, the binding result in experiment [1] is “no binding (tested: 300 nM)”. The “EC50 (read off the curve)” value in experiment [2] was around 3 nM. This molecule also showed a concentration giving a half-maximal response (EC50) in experiment [3] of 6.3 nM.

B2: G4_TGFβRII_mt4 (Fc fusion)
chain: [letters of human IgG4 Fc with S228P (EU numbers) omitted]AGGGGSGGGGSGGGGSGGGGSGIPPHVQKSVNNDMIVTDNNGAVKFPQLCKFCDVRFSTCDNQKSCMSNCEITSICEKPQEVCVAVWRKNDENITLETVCHDPKLPYHDFILEDAASPKCIMKEKKKPGETFFMCSCSSEECNDNIIFSEEYNTSNPD
notes: also called m4
As for B2, the “EC50 (read off the curve)” value in experiment [2] is around 2 nM. The same molecule had an EC50 in experiment [3] of 6.23 nM.

B3: G4_TGFβRII_mt3 (Fc fusion)
chain: [letters of human IgG4 Fc with S228P (EU numbers) omitted]AGGGGSGGGGSGGGGSGGGGSGIPPHVQKSVNNDMIVTDNNGAVKFPQLCKFCDVRFSTCDNQKSCMSNCSITSICEKPQEVCVAVWRKNDENITLETVCHDPKLPYHDFILEDAASPKCIMKEKKKPGETFFMCSCSSEECNDNIIFSEEYNTSNPD
As for B3, in experiment [1], the binding result is “no binding (tested: 300 nM)”. Also, the “EC50 (read off the curve)” value in experiment [2] was around 4 nM. Further, a half-maximal effect in experiment [3] (EC50) was put at 10.8 nM.

B4: G4_TGFβRII_mt2 (Fc fusion)
chain: [letters of human IgG4 Fc with S228P (EU numbers) omitted]AGGGGSGGGGSGGGGSGGGGSGIPPHVQKSVNNDMIVTDNNGAVKFPQLCKFCDVRFSTCDNQKSCMSNCQITSICEKPQEVCVAVWRKNDENITLETVCHDPKLPYHDFILEDAASPKCIMKEKKKPGETFFMCSCSSDECNDNIIFSEEYNTSNPD
Consider B4, for which the binding result in experiment [1] is recorded as “no binding (tested: 300 nM)”. Besides, the “EC50 (read off the curve)” value in experiment [2] is around 6 nM. Moreover, the concentration for a half-maximal effect (EC50) in experiment [3] was 15.2 nM.
